Self-cleavage data for 167 variants are collected here from the RNAGym collection of RNA variant scans (doi:10.1093/nar/gkz1192).

B1: CPEB3 Ribozyme (parent)
chain: UAACAGGGGGCCACAGCAGAAGCGUUCACGUCGCAGCCCCUGUCAGAUUCUGGUGAAUCUGCGAAUUCUGCUGUAUAUCUC

The source gives no read counts; variants with many changes may rest on few reads.

Variants of B1 are the subject of the data set. Put plainly: self-cleavage, relative activity (ratio to wild type); higher = more cleavage; in vitro, sequencing. The method in brief:
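Libraries of CPEB3 self-cleaving ribozyme mutants came from rounds of error-prone PCR and carried barcodes, which DNA sequencing matched to variants. In vitro transcription used T7 RNA polymerase at 37°C for 5 hours, with a further 15 min in DNase I before EDTA stopped the reaction; the ribozymes cleaved during both steps. The RNA was reverse transcribed with template switching and sequenced on Illumina. Relative activity is the cleaved/total read fraction of a variant divided by that of the unmutated ribozyme, averaged over three batches with at least 5 reads.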
Take A28G U31C C59U A75C: the self-cleavage amounted to 0.23. With U26C U31A U41C A56U U66A U74C U78C the figure was 0.06; with U26C U41A G46U, 0.16. As for U26C U41A G46A, the figure is 0.09; as for U26C G30A C40A A56U A64U U80C, 0.08; as for A28G A35U C37A G42A A57U, 0.4. On to U26C U41C U51A U54A A56G A65G, for which the self-cleavage came to 0.12. With C27U U72G A75G the figure was 0.22; with C27U U49C A64U U72C, 0.05. Regarding U26C C38A A64U U69A U78C, the self-cleavage came to 0.04. A28G G42U U66G: the self-cleavage was 0.11. As for U26C G30A U43C U74A, the figure is 0.18.

In the case of U26C A47U A56G C79U, the self-cleavage came to 0.47. With A28C C71A U80C the figure was 0.36; with U26C C32A C39U U49C A64G U80C, 0.2; with A28C A45G A56G A77U, 0.13. As for A28G G33A U60A C62U A65G U69A U72C, the self-cleavage came to 0.08. With C27U U41C U43A, the self-cleavage was 0.2. In the case of A28C U72A U80C, the self-cleavage worked out at 0.69. With U26C G33C A35U U69C U72A the figure was 0.07; with A28G C40U U67C, 0.34. As for U26C U60C U74C, the figure is 0.39; as for U26C U31A A45U U60C, 0.15; as for A28G C38U A56U U74C, 0.14. As for A28G A57U A64G, the figure is 0.15; as for A28C U60C U74C, 0.5; as for U26C A64G U76C, 0.21. As for C27A C38A G42A, the self-cleavage came out at 0.09. With U26C C38A A45G A57G the figure was 0.13; with U26C U43A U72G, 0.27; with A28C U41C U54C A64G U66C, 0.23.

With U26C G33C G55U U60C, the self-cleavage is 0.1. U26C U41C U66G U69C: the self-cleavage came to 0.2.

As for U26C C38U U41A U80C, the self-cleavage stood at 0.09. Take U26C U41C U54A U67A U72C: the self-cleavage was 0.24. Consider U26C U58G U60G, for which the self-cleavage turned out to be 0.19. With U26C U60C U66C U69C the figure was 0.1; with A28G A45G C50A U72C, 0.06; with U26C C29U U31C U49C, 0.1. With U26C G73A U80A the figure was 1.11; with U26C C29U U43C A56U U67C, 0.13; with A28G G36U U48C A77G, 0.05. U26C A45G U74C C81A: the self-cleavage was 0.34. With U26C C29A A35U A56G A77G the figure was 0.04.

Take U26C G33U A56U A77U: the self-cleavage was determined as 0.31. As for A28C C29U A35U C38U U49A U60A A64U, the figure is 0.1; as for U26C U48A U54A, 0.1; as for C27G U54C C81A, 0.28.

For the variant A28G A64U U72A, the self-cleavage came out at 0.17.

As for U26C G36A U41A, the self-cleavage is 0.17. Turning to U26C C37U A57U G63U C71A, the self-cleavage was found to be 0.06. A28G A56G C68A U74C: the self-cleavage is 0.14. As for A28G A45U U74A, the self-cleavage worked out at 0.57. With A28G G46A U60C U66C U69C the figure was 0.08. Take C27A U41A A47G A56G U60C: the self-cleavage turned out to be 0.09. On to A28G U41C C50A U72A, for which the self-cleavage was 0.24. With U26C C32A A45G U72C the figure was 0.49.

On to U26C U66C U76C, for which the self-cleavage is 0.09. As for U26C C32A G36A, the figure is 0.13; as for U26C A77G U78C, 0.38; as for U26C C29A U80C, 0.46. As for C27A C37U U67A, the figure is 0.16; as for A28G A35G U51A U67A, 0.74. With U26G A56G U80A the figure was 0.08; with U26C U31C U66C, 0.21.

For A28G A47G A57G, the self-cleavage amounted to 0.39. As for U26C A56G C79U, the figure is 0.87. For A28G A35G A56G, the self-cleavage was 0.83. With A28G C71U U80A the figure was 0.26; with U26C A47U U51C U60A, 0.11. As for C27G C39A A45G, the figure is 0.25; as for C27A C40U U66C, 0.09; as for U26C U41A A77U, 0.24. For U26C G36A U60A, the self-cleavage came out at 0.16. With A28G A35G A45U the figure was 0.55; with A28C U51A U60C, 0.35. With U26G A35G G42A, the self-cleavage is 0.08. Turning to A28C G33A U48C U58C U60A A65G, the self-cleavage was 0.28. In the case of A28G U31C C38A U43C U49C U60C U80C, the self-cleavage was determined as 0.06. On to U26C U67A C79G, for which the self-cleavage stood at 0.16.

For the variant U26C U41A A57G U58C, the self-cleavage turned out to be 0.16.

Consider A28G G53A G63A, for which the self-cleavage amounted to 0.62. Turning to U26C C27G A57G A64G, the self-cleavage is 0.23. As for A28G G30U U41G U48C, the figure is 0.11; as for A28G G73A U80C, 1.12; as for U26C A35U U43C A45G, 0.2.

On to U26C G36A A45G U80C C81G, for which the self-cleavage was found to be 0.15. With U26C U54C A56U U60C U76A U80C the figure was 0.07; with U26C U67A U80A, 0.13; with A28G A56G U60C, 0.32. For the variant U26C G46A U48C U60C, the self-cleavage worked out at 0.09.

Turning to U26C C39U G53C U78A, the self-cleavage is 0.22. For C27U U31C A35G U54A U78C, the self-cleavage worked out at 0.19. As to U26C C44U A56G U69G, the self-cleavage worked out at 0.19. With U26C A35U U49C A57G U72A U80C the figure was 0.07; with U26C U48A U51G A56G C79U, 0.18. As to U26C C40G A64U U66A U69A U76A, the self-cleavage was 0.08. As to A28G A56G A64C U78C, the self-cleavage came out at 0.11. As for C27U U54A A65G G70U U72C, the self-cleavage is 0.13. In the case of U26C G30C U41C, the self-cleavage turned out to be 0.19. For U26C G46U U51A A75G, the self-cleavage was 0.13.

Consider C27A U54C U58C, for which the self-cleavage was determined as 0.05. In the case of A28G A35G U49C, the self-cleavage amounted to 0.42.

Take A28G A35G U49A: the self-cleavage came out at 1.05. For the variant A28G A35U U43C U78G, the self-cleavage was determined as 0.13. With A28C U41G G70A the figure was 0.09. With U26C U54C A65G the figure was 0.13.

On to C27G A56G A57G, for which the self-cleavage was determined as 0.17.

On to A28G G55A U67C U72C U80C, for which the self-cleavage came to 0.16. With U26C U54A U80A, the self-cleavage was 0.45. With U26C A56U A77G U78C the figure was 0.21.

As to A28G A64G U67C, the self-cleavage worked out at 0.41. A28G A47C U51A: the self-cleavage was determined as 0.2. With U26G C40U A57G U58C the figure was 0.11; with A28G C34U U41A, 0.3; with U26C G33C A45U A56G, 0.04. As for A28G U31C A45G U51A A77C, the self-cleavage was 0.15.

Regarding U26G U41C U72A A75U, the self-cleavage turned out to be 0.24. C27U G33U C37A U48C: the self-cleavage was found to be 0.08. As for A28G C59A U67C U69C, the figure is 0.15. With A28C A45G A77U the figure was 0.34.

For the variant A28G U31C A64G U67A U72C, the self-cleavage is 0.1.

Consider A28C U72A U74A, for which the self-cleavage turned out to be 0.53.

As to C27A C32G A57G U67A U72C, the self-cleavage came to 0.12. As to A28C C29U U72G, the self-cleavage came out at 0.22.

Consider A28G C44U A47G U60A C71G U78C, for which the self-cleavage turned out to be 0.08. As for A28G U31C U43C U51C, the self-cleavage came to 0.19. For the variant A28C A35U U51C, the self-cleavage is 0.12. As for U26G U49A U72A, the self-cleavage amounted to 0.16. Turning to C27A C32A U69A, the self-cleavage was determined as 0.14. With U26C U54C A56U U72A the figure was 0.22. With U26C C39G A47U U69G the figure was 0.05; with U26C U43C A56G A64G, 0.5; with U26C A35U A64G, 0.17.

U26C U48C A64U: the self-cleavage was determined as 0.2. As for U26C U43C U58C U60A, the self-cleavage was 0.1. On to U26C U60A U72C, for which the self-cleavage came out at 0.33. As for U26C A35U U48C, the figure is 0.17; as for A28G A35C C38U A47G U60C, 0.05. As for C27U A35U U41A U60C U69A U72C U80C, the figure is 0.06; as for A28G U31A U43A U74A U76C, 0.79. In the case of A28C U66C U69A U72A, the self-cleavage is 0.12. As for U26C C27G G36A A45G A75G U78C, the figure is 0.02; as for U26G G33C U51A U60C A64U U69A U80C, 0.05; as for U26C C44G C59A U69A, 0.18. With A28G A57G U58C the figure was 0.08. With A28G G33A A35G U41G the figure was 0.12; with U26C U43A U66C, 0.2; with U26C A45G U72A, 0.31. As for U26C A45G A57U U66C U78C, the self-cleavage came out at 0.06. As for A28G G33A U66C C71A, the figure is 0.11; as for U26C U51C U54C U80A, 0.3.

Take U26G C32A C68U U80C: the self-cleavage was determined as 0.24. As for U26C U41A A64G, the self-cleavage stood at 0.09. Regarding A28G A56G A57C U60A U72G, the self-cleavage came to 0.02.

On to U26C U31C A56U U80C, for which the self-cleavage was found to be 0.09. Take A28G G42A U54A: the self-cleavage stood at 0.56.

For the variant A28C C39A U51C A65G, the self-cleavage stood at 0.09. For U26C U43A G70A U72C, the self-cleavage was determined as 0.24. On to U26C G30C U72G, for which the self-cleavage worked out at 0.2. As to A28G A35U U60G, the self-cleavage was 0.06.

For the variant U26C C37G A47G U49C G63A, the self-cleavage was determined as 0.07.

With U26C A56G U67C U72C, the self-cleavage amounted to 0.1. As for A28G A45U U67C, the figure is 0.12. With A28G C39A U41C A57G U67C the figure was 0.1; with U26C G36C A56U U80A, 0.35; with U26C U41A A47G A57U, 0.06.
